About 60 (0.1%) of roughly 46,000 compounds were called active. Not shown: some 3% with an inconclusive outcome. Calls follow the shape of the dose curve; as a rule, active = well fitted inhibition curve with a large enough effect; inconclusive = small, poorly fitted or top-dose-only effect; inactive = no such curve, though single readings can be large or run the other way. The list shows a part of the results.
Assay: Primary qHTS assay for Inhibitors of ovarian cancer metastasis using an organotypic tumor microenvironment (TME) model. Also: nearly all actives have a fitted effect of over 65% in size.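 As to activity change, negative = inhibition: plate controls were DMSO wells for no effect and tomatine positive control wells for full effect.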
Details: SKOV3ip1-GFP adhesion/invasion on 3D omental model, fluorescence; series mostly up to 45.8 µM; activity change, negative = inhibition: at the top concentration
How it was run: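 Primary human omental fibroblast/mesothelial 3D culture pre-formed 48 h. SKOV3ip1-GFP cells added with compounds (0.36-46 umol/L), incubated 2 h RT/16 h 37 C, fixed; GFP cells quantified at 488/509 nm.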

Activity change, negative = inhibition, inactive:
Cc1ccc(CNC(=O)CCc2c(C)nc3nc(CNC(=O)OC(C)(C)C)nn3c2C)cc1 -4.03%
CC(C)c1ccc(-c2nnc3n(CCc4ccccc4)c(=O)c4ccccc4n23)cc1 -0.272%
CC(=O)c1ccc(NS(=O)(=O)c2cc(-c3cc(C)no3)ccc2C)cc1 3.19%
CCC(=O)N1CCc2cc(S(=O)(=O)NCCC(=O)Nc3ccc(C)cc3)ccc21 9.66%
O=C(COc1ccccc1-c1nnc(-c2ccccc2)o1)Nc1ccc(Br)cc1F -5.85%
CC(=O)c1cccc(Nc2ccc3cc(S(=O)(=O)N4CCC(C)CC4)ccc3n2)c1 1.29%
COc1cc(C(=O)n2nc(-c3ccco3)nc2NCc2ccc(Cl)cc2)cc(OC)c1OC 23.6%
COc1ccc(NC(=O)c2c(C)oc3ccc(O)c(CN4CCCC4)c23)cc1Cl 20.4%
Cc1cccc(NCc2nc3ccccc3n2CCOc2ccccc2C)c1 -14.5%
CCSc1ncc(Cl)c(C(=O)Nc2c(C(=O)Nc3cccc(C)c3)oc3ccccc23)n1 -14.3%
Cc1ccc2nc(-c3ccc(Cl)cc3)cc(C(=O)OCC(=O)c3ccccc3)c2c1 0.673%
COc1ccccc1OCC(=O)Nc1nc2c(s1)CC(C)CC2 (configuration not stated) -5.23%
Cc1cccc(-c2nc(CSc3nncn4c3cc3oc(C)cc34)c(C)o2)c1 -10.5%
COc1ccc(C(=O)NCC(c2ccc(N(C)C)cc2)N2CCCC2)c(OC)c1 (configuration not stated) 17.8%
CCC(Cn1nnc2ccccc2c1=O)NC(=O)Nc1ccc(C)cc1C (configuration not stated) -3.97%
CC1CCC(NC(=O)C2(C)Cc3ccccc3C(=O)N2Cc2ccc(F)cc2)CC1 (configuration not stated) -6.58%
COc1ccc(C(=O)NCCc2sc(-c3ccc(F)cc3)nc2C)cc1OC 7.72%
CCc1ccc(C2Sc3ccccc3NC3=C2C(=O)c2ccccc23)cc1 (configuration not stated) 2%
Cc1ccc(C2c3[nH]c4ccccc4c3CCN2C(=O)Nc2ccc(C)c(C)c2)cc1 (configuration not stated) 6.91%
CCOc1ccccc1C(=O)NCc1ccc2c(c1)CCN2C(C)=O -25.6%
COc1ccc(C2(CNC(=O)C(=O)Nc3cccc(C(F)(F)F)c3)CCCC2)cc1OC 1.94%
Cc1cccc(NC(=O)C2CCCN(S(=O)(=O)c3cccc4nonc34)C2)c1 (configuration not stated) 25.2%
CC(=O)c1cccc(NC(=O)c2nc(-c3ccc(C)cc3)n3c2CCCCC3)c1 -1.16%
O=C(NCCc1ccc(Cl)cc1)c1ccc(CSCc2ccccc2Cl)o1 22.9%
Cc1ccc(NC(=O)C(=O)NCc2ccc(Cl)cc2)cc1 -1.04%
Cc1ccc(S(=O)(=O)Nc2cccc(-c3ccc(N4CCCCC4)nn3)c2)s1 -1.27%
Nc1cc(=O)nc(SCC(=O)Nc2ccc(F)cc2)n1-c1ccc(Cl)cc1 1.07%
Cc1oc(-c2cccc(Cl)c2)nc1CN1CCC(C(=O)NCCCN2CCN(c3cccc(Cl)c3)CC2)CC1 0.627%
CCCCNC(=O)c1[nH]c2ccccc2c1Sc1ccc(C)cc1 15.1%
Cc1ccc(CNCc2c(C(=O)O)n(Cc3ccccc3C)c3cc(C)ccc23)cc1 -8.55%
CCC[C@@H]1C[C@@H](C(=O)N[C@@H]([C@H]2O[C@H](SC)[C@H](O)[C@@H](O)[C@H]2O)[C@@H](C)O)N(C)C1 4.07%
CCc1ccc(NC(=O)CSc2nccn2C2CCCC2)cc1 -12.6%
Cc1ccc(C)c(S(=O)(=O)c2cnc(SCC(=O)Nc3ccc(F)cc3F)[nH]c2=O)c1 -1.89%
Cc1cc(=O)n(CC(=O)NCCC(C)C)c2c1c(C)nn2C 6.05%
Cn1cc(S(=O)(=O)N2CCCCC2)cc1C(=O)N1CCN(c2ccc(F)cc2)CC1 8.73%
Cc1cc2c(=O)c(C(=O)c3ccncc3)cn(CC(=O)Nc3cccc(C)c3C)c2cc1C -2.73%
Cc1oc(-c2ccc(C(=O)NCc3ccc(N(C)C)cc3)cc2)nc1COc1ccccc1 -16.3%
COc1ccc(NC(c2ccc(F)cc2)c2nnc(-c3ccccc3Cl)o2)cc1Cl (configuration not stated) -9.81%
Cc1cccc(NC(=O)Cn2c(=O)oc3cc(S(=O)(=O)NCc4ccccc4)ccc32)c1 3.33%
COc1ccc(Br)cc1C1CC(=O)Nc2c1c(C)nn2-c1nc(C)cc(C)n1 (configuration not stated) 2.66%
CCOC(=O)c1c(S(=O)(=O)N2CCCC(C(=O)N3CCN(c4ccc(F)cc4)CC3)C2)c(C)n(C)c1C (configuration not stated) 1.41%
COc1ccc(CCNC(=O)Cn2nc(C)n3c(cc4occc43)c2=O)cc1OC -5.74%
COc1ccc(CCNC(=O)Cn2ncc3c(C)n(Cc4ccccc4F)c(C)c3c2=O)cc1OC 5.95%
Cc1c(C(N)=O)nnn1-c1ccc(Br)cc1 1.77%
CCN(CC)CCNC(=O)C1CCCN(c2ncnc3onc(C)c23)C1 (configuration not stated) 1.79%
Cc1ccc(C)c(-c2csc(-c3c(N)c(C(=O)c4ccc5c(c4)OCO5)n4ccccc34)n2)c1 -5.66%
Cc1c(Cl)cccc1-n1c(CCC(=O)O)ccc1-c1cccs1 8.44%
CCC(C(=O)N1CCN(c2cc(Cl)ccc2C)CC1)n1nc(C)n2c(cc3occc32)c1=O (configuration not stated) 4.1%
CCSc1nc2n(n1)C(c1ccc(CC)cc1)C(C(=O)Nc1ccccc1OC)=C(C)N2 (configuration not stated) 0.821%
COc1ccc(Br)cc1CNC(=O)C(C)n1nc(C)n2c(cc3occc32)c1=O (configuration not stated) 3.42%
COc1cc(CNCc2c(C(=O)O)c(C)n(Cc3cccc(Cl)c3)c2C)cc(OC)c1OC -9.27%
COc1ccc(N2CCN(C(=O)c3cc4c(=O)n(Cc5ccccc5)ccc4nc3C)CC2)cc1 0.82%
Cc1ccc(CN2CCSc3ccc(C(=O)Nc4ccc(F)cc4F)cc32)cc1 -5.63%
Cc1ccc2oc(C(=O)Nc3nnc(CC(C)C)s3)cc(=O)c2c1 8.88%
COc1ccc(CCNC(=O)C(=O)Nc2ccc(C)c(C)c2)cc1 1.73%
CC12CC3CC(C)(C1)CC(N)(C3)C2 0.954%
CCc1ccc(CNC(=O)c2cnc(N3CCCCC3)c3ccccc23)cc1 -6.63%
COc1ccc(S(=O)(=O)Nc2cccc(-c3ccc(N4CCCCCC4)nn3)c2)cc1F 3.79%
O=C(CSc1nc2c(c(=O)[nH]1)CCCC2)Nc1ccccc1C(F)(F)F -4.51%
CC(C)c1ccc(S(=O)(=O)c2cn(CC(=O)Nc3ccc(F)cc3)c3ccccc3c2=O)cc1 -10.1%
CN1C(C(=O)Nc2ccccn2)=C(O)c2sc(Cl)cc2S1(=O)=O -1.79%
CCOc1ccc(NC(=O)Cn2c(=O)cc(C)c3c(C)nn(C)c32)cc1 -4.56%
COCCCNC(=O)CCCN1C(=O)CCn2nc(-c3cccn3C)cc21 1.97%
CCc1ccccc1NC(=O)Cn1c(=O)n(Cc2ccccc2)c(=O)c2c(C)c(C(=O)N(C)C)sc21 3.95%
Cc1ccccc1-c1noc(-c2ccc(N3CCC(C)CC3)c([N+](=O)[O-])c2)n1 1.16%
CSc1ncc(Cl)c(C(=O)Nc2c(C(=O)Nc3cccc(C)c3)oc3ccccc23)n1 -15.6%
Cc1ccc(S(=O)(=O)c2c(Nc3ccc(C)c(C)c3)sc(C(=O)c3ccc4c(c3)OCO4)c2N)cc1 -1.43%
CCCOc1ccc(C2=NC(c3ccncc3)=Nc3ccc(C)cc3N2)cc1 -9.97%
Cc1ccccc1CNC(=O)c1ccc(NC(=O)N2CCCCc3ccccc32)cc1 -3.35%
O=C(Nc1c(C(=O)c2ccccc2)oc2ccccc12)c1ccc(F)cc1 6.28%
COc1ccc(CCN(C)CCCOc2ccc(S(=O)(=O)c3[nH]c4ccccc4c3C(C)C)cc2)cc1OC 6.65%
Cc1cc(C)n(CC(=O)Nc2cc(F)ccc2F)c(=O)c1C#N -7.13%
Cc1ccc(O)c(Nc2nc3ccccc3c3nncn23)c1 1.93%
COc1cccc(C(=O)Nc2ccc3nc4n(c(=O)c3c2)CCCCC4)c1 7.28%
Cc1ccc(C(=O)c2cn(CC(=O)NCc3ccccc3)c3nc(C)ccc3c2=O)cc1 5.36%
O=C1CN(C(=O)c2ccc(S(=O)(=O)N3CCCC3)cc2)C(c2ccccc2)c2cc(Cl)ccc2N1 (configuration not stated) -6.59%

outcome, inactive:
CCCNC(=O)CCNS(=O)(=O)c1ccc2c(c1)c(=O)n(C)c(=O)n2C
CCC(C(=O)NC1CCCCC1)n1c(SCc2ccc(F)cc2)nc2ccncc21 (configuration not stated)
CCOC(=O)C(C)Sc1nnc2ccc3ccccc3n12 (configuration not stated)
CCOc1ccc(NC(=O)N(Cc2c[nH]c3ccccc23)C2CCCCC2)cc1
COc1cc(OC)c(NC(=O)CCn2cnc3onc(-c4ccc(F)cc4)c3c2=O)cc1Cl
Cc1ccc2c(c1)c(=O)c(C(=O)c1ccncc1)cn2CC(=O)Nc1c(C)cccc1C
CC(NC(=O)CN(C)S(=O)(=O)c1ccc2c(c1)c(=O)n(C)c(=O)n2C)c1ccccc1 (configuration not stated)
Cc1ccc2nc(N(Cc3cccnc3)C(=O)C3CCCCC3)sc2c1
CCc1cccc(NC(=O)CN2C(=O)CCc3cc(S(=O)(=O)N4CCOCC4)ccc32)c1
CCc1ccc2nc(N3CCC(C(=O)O)CC3)sc2c1
CCN(CC)c1cc(C)nc2nc(-c3ccc(C)cc3)nn12
O=C(CN1C(=O)CC(c2ccco2)Sc2ccccc21)Nc1cccc(C(F)(F)F)c1 (configuration not stated)
Cc1ccc(-c2nc(C)c(CCNC(=O)C(=O)Nc3cc(C)ccc3C)s2)cc1
Cc1ccccc1CN1c2ccccc2-c2nc(SCC(=O)c3ccc(Cl)cc3)ncc2S1(=O)=O
Cc1csc2nc(-c3cccc(NS(C)(=O)=O)c3)cn12
Cc1ccc(-c2n[nH]c3c2C(c2ccccc2Cl)N(c2ccc(C(=O)O)cc2)C3=O)cc1 (configuration not stated)
Cc1oc2ccc(NS(=O)(=O)c3ccc(F)cc3)cc2c1C(=O)O
Cc1c(CN(C)C(=O)c2cc(-c3ccccc3)nc3ccc(Br)cc23)cnn1C
COc1cc(CNCCSc2nnnn2C)ccc1OCc1ccccc1C
COc1ccc(OC)c(NC(=O)N2CC(C)Oc3ccc(C)cc32)c1 (configuration not stated)
CCOc1ccc(C(=O)Nc2ccc3oc(-c4cccc5ccccc45)nc3c2)cc1
